According to the supplement of paper PMC11876631:
± gives the standard deviation of the averaged measurements. Laboratory Escherichia coli strains with one amino-acid change in an essential protein, pooled on minimal glucose agar with carbenicillin or gentamicin at twice the control MIC (plus kanamycin and chloramphenicol for the plasmids), 48 h. Fold change of barcode share against drug-free plates; higher = less susceptible. Active = above 20 in both replicates (the paper's putatively resistant). '<' = one read or none on drug, '>' = one read or none on a drug-free plate. Shares are relative, so most strains fall below 1 when a few take over. Listed are strains with at least 15 reads on both drug-free plates, and hits; most hits rest on fewer reference reads. Replicate rank correlation about 0.5. Edits are read from barcodes.

B1: cdsA L126W (protein)
chain: MLKYRLISAFVLIPVVIAALFLLPPVGFAIVTLVVCMLAAWEWGQLSGFTTRSQRVWLAVLCGLLLALMLFLLPEYHRNIHQPLVEISLWASLGWWIVALLLVLFYPGSAAIWRNSKTLRLIFGVWTIVPFFWGMLALRAWHYDENHYSGAIWLLYVMILVWGADSGAYMFGKLFGKHKLAPKVSPGKTWQGFIGGLATAAVISWGYGMWANLDVAPVTLLICSIVAALASVLGDLTESMFKREAGIKDSGHLIPGHGGILDRIDSLTAAVPVFACLLLLVFRTL
B2: cdsA I203W (protein)
chain: MLKYRLISAFVLIPVVIAALFLLPPVGFAIVTLVVCMLAAWEWGQLSGFTTRSQRVWLAVLCGLLLALMLFLLPEYHRNIHQPLVEISLWASLGWWIVALLLVLFYPGSAAIWRNSKTLRLIFGVLTIVPFFWGMLALRAWHYDENHYSGAIWLLYVMILVWGADSGAYMFGKLFGKHKLAPKVSPGKTWQGFIGGLATAAVWSWGYGMWANLDVAPVTLLICSIVAALASVLGDLTESMFKREAGIKDSGHLIPGHGGILDRIDSLTAAVPVFACLLLLVFRTL
B3: accA I116A (protein)
chain: MSLNFLDFEQPIAELEAKIDSLTAVSRQDEKLDINIDEEVHRLREKSVELTRKIFADLGAWQIAQLARHPQRPYTLDYVRLAFDEFDELAGDRAYADDKAIVGGIARLDGRPVMIAGHQKGRETKEKIRRNFGMPAPEGYRKALRLMQMAERFKMPIITFIDTPGAYPGVGAEERGQSEAIARNLREMSRLGVPVVCTVIGEGGSGGALAIGVGDKVNMLQYSTYSVISPEGCASILWKSADKAPLAAEAMGIIAPRLKELKLIDSIIPEPLGGAHRNPEAMAASLKAQLLADLADLDVLSTEDLKNRRYQRLMSYGYA
B4: cdsA I203Q (protein)
chain: MLKYRLISAFVLIPVVIAALFLLPPVGFAIVTLVVCMLAAWEWGQLSGFTTRSQRVWLAVLCGLLLALMLFLLPEYHRNIHQPLVEISLWASLGWWIVALLLVLFYPGSAAIWRNSKTLRLIFGVLTIVPFFWGMLALRAWHYDENHYSGAIWLLYVMILVWGADSGAYMFGKLFGKHKLAPKVSPGKTWQGFIGGLATAAVQSWGYGMWANLDVAPVTLLICSIVAALASVLGDLTESMFKREAGIKDSGHLIPGHGGILDRIDSLTAAVPVFACLLLLVFRTL
B5: cdsA L221A (protein)
chain: MLKYRLISAFVLIPVVIAALFLLPPVGFAIVTLVVCMLAAWEWGQLSGFTTRSQRVWLAVLCGLLLALMLFLLPEYHRNIHQPLVEISLWASLGWWIVALLLVLFYPGSAAIWRNSKTLRLIFGVLTIVPFFWGMLALRAWHYDENHYSGAIWLLYVMILVWGADSGAYMFGKLFGKHKLAPKVSPGKTWQGFIGGLATAAVISWGYGMWANLDVAPVTLAICSIVAALASVLGDLTESMFKREAGIKDSGHLIPGHGGILDRIDSLTAAVPVFACLLLLVFRTL
B6: cdsA L221W (protein)
chain: MLKYRLISAFVLIPVVIAALFLLPPVGFAIVTLVVCMLAAWEWGQLSGFTTRSQRVWLAVLCGLLLALMLFLLPEYHRNIHQPLVEISLWASLGWWIVALLLVLFYPGSAAIWRNSKTLRLIFGVLTIVPFFWGMLALRAWHYDENHYSGAIWLLYVMILVWGADSGAYMFGKLFGKHKLAPKVSPGKTWQGFIGGLATAAVISWGYGMWANLDVAPVTLWICSIVAALASVLGDLTESMFKREAGIKDSGHLIPGHGGILDRIDSLTAAVPVFACLLLLVFRTL
B7: cdsA L221Q (protein)
chain: MLKYRLISAFVLIPVVIAALFLLPPVGFAIVTLVVCMLAAWEWGQLSGFTTRSQRVWLAVLCGLLLALMLFLLPEYHRNIHQPLVEISLWASLGWWIVALLLVLFYPGSAAIWRNSKTLRLIFGVLTIVPFFWGMLALRAWHYDENHYSGAIWLLYVMILVWGADSGAYMFGKLFGKHKLAPKVSPGKTWQGFIGGLATAAVISWGYGMWANLDVAPVTLQICSIVAALASVLGDLTESMFKREAGIKDSGHLIPGHGGILDRIDSLTAAVPVFACLLLLVFRTL
B8: cdsA L221D (protein)
chain: MLKYRLISAFVLIPVVIAALFLLPPVGFAIVTLVVCMLAAWEWGQLSGFTTRSQRVWLAVLCGLLLALMLFLLPEYHRNIHQPLVEISLWASLGWWIVALLLVLFYPGSAAIWRNSKTLRLIFGVLTIVPFFWGMLALRAWHYDENHYSGAIWLLYVMILVWGADSGAYMFGKLFGKHKLAPKVSPGKTWQGFIGGLATAAVISWGYGMWANLDVAPVTLDICSIVAALASVLGDLTESMFKREAGIKDSGHLIPGHGGILDRIDSLTAAVPVFACLLLLVFRTL

Molecular target: Escherichia coli (laboratory strain)
Assay: barcode share on antibiotic plates over drug-free plates; higher = less susceptible
Details: antibiotic: carbenicillin; 2× MIC (3.1 µg/mL)
Description: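 A pool of E. coli strains, each edited to carry one amino-acid change in an essential protein, was grown for 48 h on minimal glucose agar with or without antibiotic; strain barcodes were sequenced; mean of two replicates.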

For B1, which “fold change of barcode share” value is on record?
The value was 1.37 ± 0.92.

With B2 as the protein, how does the “fold change of barcode share” value read?
The value was 0.396 ± 0.0099.

How did the “fold change of barcode share” value turn out when B3 was run?
Its value is 0.309 ± 0.16.

B4 was tested. Which “fold change of barcode share” value did it give?
The value was 0.357 ± 0.13.

B5 was tested. Which “fold change of barcode share” value did it give?
The value was 0.45 ± 0.25.

For B6, which “fold change of barcode share” value is on record?
Its value is 0.336 ± 0.17.

For B7, which “fold change of barcode share” value is on record?
The value was 0.235 ± 0.026.

For B8, which “fold change of barcode share” value is on record?
Its value is 0.343 ± 0.058.

Same assay, conditions: antibiotic: gentamicin; 2× MIC (MIC 0.45 µg/mL)

With B1 as the protein, how does the “fold change of barcode share” value read?
The value was < 0.0141.

Which “fold change of barcode share” value does the source give for B2 here?
The value was 0.0045 ± 0.0014.

With B3 as the protein, how does the “fold change of barcode share” value read?
The value was < 0.0115.

Which “fold change of barcode share” value does the source give for B4 here?
Its value is < 0.002.

B5 was tested. Which “fold change of barcode share” value did it give?
The value was < 0.00464.

With B6 as the protein, how does the “fold change of barcode share” value read?
The value was 0.00875 ± 0.0056.

Which “fold change of barcode share” value does the source give for B7 here?
The value was < 0.00494.

B8 was tested. Which “fold change of barcode share” value did it give?
The value was < 0.0106.
